Out of some 52,000 compounds screened, about 1,700 (3.3%) were called active. Rule as the data show it: active = survival mostly below about 52% (no sharp cut-off); inactive = mostly above about 56%. The list shows a part of the results.
These compounds were tested on Wild type (assay: S. aureus survival, RN4220 and DeltatarO strains – OD600, teichoic acid synthesis inhibitors, primary screen (AID 463173)). Settings: S. aureus RN4220 wild type/DeltatarO growth, OD600, 18 h, hits give low values; concentration not given here unless noted.

Row | Structure (SMILES) | survival
1 | CC(C)C12CN3CC(C(C)C)(CN(C1)C3c1ccccn1)C2=O (stereo not given) | inactive: 85%
2 | Cc1ccc(-n2c(/C=C\c3ccc(F)cc3)nc3ccccc3c2=O)cc1Cl | inactive: 72%
3 | Cc1cccc(-c2nc(CN3C(=O)CN=C(c4ccccc4)c4ccccc43)c(C)o2)c1 | active: 2%
4 | Cn1c(=O)n(C)c2cc(CNCCc3ccc(F)cc3)ccc21 | inactive: 86%
5 | Cc1ccc(NC(=O)Cn2cc(C(=O)c3ccccc3)c3ccccc32)cc1 | inactive: 114%
6 | Cc1ccc(Cl)cc1NC(=O)N(Cc1ccc2c(c1)OCO2)C1CCN(Cc2ccccc2)CC1 | active: 14%
7 | N#CSC12CN3CN(CN(C3)C1)C2 | inactive: 111%
8 | Cc1ccc2nc(NC(=O)c3cccn(Cc4ccc(Cl)cc4)c3=O)sc2c1 | inactive: 84%
9 | COC(=O)Cn1cc(C=C2C(=O)N(C)C(=O)N(C)C2=O)c2ccccc21 | inactive: 103%
10 | CC(c1ccccc1F)n1cc(C(=O)Nc2ccc3nc[nH]c3c2)nn1 (stereo not given) | inactive: 108%
11 | Cc1ccc(-n2c(/C=C/c3ccc(Br)s3)nc3ccccc3c2=O)cc1 | inactive: 58%
12 | O=C1CC(=O)N(C2CCCCC2)C(=O)N1 | inactive: 100%
13 | O=c1c2ccccc2nc(/C=C/c2cccc3ccccc23)n1-c1ccccc1Cl | inactive: 70%
14 | COc1ccc(Cl)cc1NC(=O)CN1C(=O)CN=C(c2ccccc2)c2cc(Cl)ccc21 | inactive: 73%
15 | O=C1NC(=O)N(Cc2ccco2)C(=O)/C1=C\c1ccco1 | inactive: 111%
16 | Cc1cccc(-n2c(/C=C/c3ccccc3O)nc3ccccc3c2=O)c1 | inactive: 12%
17 | CCOc1ccc(N(C(C)=O)C2=NCCCS2)cc1 | inactive: 94%
18 | CCc1ccc(NC(=O)c2cccn(Cc3cccc([N+](=O)[O-])c3)c2=O)cc1 | inactive: 82%
19 | CNC(=O)Oc1c(Cl)cc(Cl)cc1Cl | inactive: 105%
20 | CCCCc1ccc(NC(=O)c2cccn(Cc3ccc(Cl)cc3)c2=O)cc1 | inactive: 79%
21 | Cc1c(C(c2ccc(Cl)cc2Cl)c2c(O)c3ccccc3oc2=O)c(=O)n(-c2ccccc2)n1C (stereo not given) | inactive: 60%
22 | O=c1c2ccccc2nc(/C=C\c2ccccc2F)n1-c1ccc(O)cc1 | inactive: 73%
23 | COc1ccc(Br)cc1CN1CCN(C(=O)Cc2ccccc2)CC1 | inactive: 109%
24 | Cc1ccc(-n2c(/C=C/c3cc(Br)cs3)nc3ccccc3c2=O)cc1 | inactive: 64%
25 | Cc1ccccc1CN1C(=O)CN=C(c2ccccc2)c2cc(Cl)ccc21 | inactive: 90%

Row | Structure (SMILES) | survival
26 | COc1ccc(C(=O)Nc2ccc(Cl)cc2C(=O)c2ccccc2)c(OC)c1 | active: -2%
27 | Cc1ccc(OCC(=O)N2CCN(CCc3ccncc3)CC2)cc1C | inactive: 89%
28 | CC1CCC(NCCc2ccc3c(c2)OCO3)CC1 (stereo not given) | inactive: 103%
29 | CCOc1cccc(C(O)CNC)c1 (stereo not given) | inactive: 99%
30 | Cc1cc(-n2c(/C=C/c3cccs3)nc3ccccc3c2=O)ccc1Br | inactive: 126%
31 | Cc1cc(-n2c(/C=C/c3ccc(Br)s3)nc3ccccc3c2=O)ccc1Br | inactive: 66%
32 | COc1ccc(/C=C/c2nc3ccccc3c(=O)n2-c2ccc(C)cc2)cc1O | inactive: 94%
33 | Nc1ccc(NC2=NCCCS2)cc1 | inactive: 93%
34 | O=C(Nc1ccon1)c1cccn(Cc2ccccc2)c1=O | inactive: 71%
35 | Cc1cccc(-n2c(/C=C/c3cn(C)c4ccccc34)nc3ccccc3c2=O)c1 | inactive: 12%
36 | Cc1cc(NC(=O)c2cccn(Cc3cccc(Cl)c3)c2=O)no1 | inactive: 72%
37 | Cn1c(=O)c2ncnnc2n(C)c1=O | inactive: 109%
38 | Cc1ccc(-c2nc(CN3C(=O)CN=C(c4ccccc4)c4cc(Cl)ccc43)c(C)o2)cc1 | inactive: 78%
39 | O=S1(=O)N(Cc2ccccc2)CCCN1Cc1cccc(Cl)c1 | inactive: 78%
40 | Cc1ccc(Cn2cccc(C(=O)Nc3cc([N+](=O)[O-])ccc3C)c2=O)cc1 | inactive: 105%
41 | O=C(COc1cccc(Cl)c1)N1CCN(CCc2ccncc2)CC1 | inactive: 79%
42 | O=C(COc1ccccc1Cl)N1CCN(CCc2ccncc2)CC1 | inactive: 100%
43 | O=C(CCc1nc(C2=CCN(Cc3cccc(Cl)c3)CC2)no1)Nc1ccccc1F | inactive: 81%
44 | O=c1c2ccccc2nc(/C=C\c2ccc(F)cc2)n1-c1ccccc1F | inactive: 71%
45 | COc1ccc(OCC(=O)N2CCN(Cc3cc(=O)n4nc(-c5ccccc5C)sc4n3)CC2)cc1 | inactive: 152%
46 | CC(=O)NS(=O)(=O)c1ccc(NC(=O)c2cccn(Cc3ccc(Cl)cc3)c2=O)cc1 | inactive: 71%
47 | Cc1cccc(NC(=O)Cn2cc(C(=O)c3ccccc3)c3ccccc32)c1 | inactive: 91%
48 | CN1CCc2cc3c(c4c2C1Cc1ccccc1-4)OCO3 (stereo not given) | inactive: 74%
49 | Cc1c(C(c2ccc(F)cc2)c2c(O)c3ccccc3oc2=O)c(=O)n(-c2ccccc2)n1C (stereo not given) | inactive: 114%
50 | O=C(COc1ccc(Cl)cc1)Nc1ccc(Cl)cc1C(=O)c1ccccc1 | inactive: 68%

Row | Structure (SMILES) | survival
51 | Cc1nnc(NC(=O)c2cccn(Cc3ccccc3F)c2=O)s1 | inactive: 128%
52 | O=C1CC(c2c(F)cccc2Cl)c2c(c3ccccc3oc2=O)O1 (stereo not given) | inactive: 78%
53 | CN=Cc1c(O)[nH]c(=O)[nH]c1=O | inactive: 98%
54 | CCC12CN3CC(CC)(CN(C1)C3c1ccccn1)C2=O (stereo not given) | inactive: 85%
55 | CC(=O)N1CC(=O)Nc2ccc(F)cc2C1c1ccccc1 (stereo not given) | inactive: 82%
56 | Cc1cc(C)cc(-n2c(=O)[nH]c3ccccc3c2=O)c1 | inactive: 72%
57 | CCCSc1nc2ccccc2c(=O)n1-c1ccccc1OC | active: -1%
58 | CC1=NN(c2ccccc2)C(=O)/C1=C\c1c(O)[nH]c(=O)[nH]c1=O | inactive: 113%
59 | O=C(Nc1ccon1)c1cccn(Cc2cccc(Cl)c2)c1=O | inactive: 66%
60 | CCCc1nc2ccccc2c(=O)n1-c1ccccc1 | inactive: 127%
61 | COCc1c(CN)cnc(C)c1N | inactive: 102%
62 | O=c1cccc2n1CC1CC2CN(c2nc(N3CCCCC3)nc(N3CCCCC3)n2)C1 (stereo not given) | inactive: 96%
63 | Cc1oc(-c2ccc(Cl)cc2)nc1CN1C(=O)CN=C(c2ccccc2)c2ccccc21 | inactive: 80%
64 | O=c1[nH]c2ccccc2c(=O)n1-c1ccc(Cl)c(Cl)c1 | inactive: 91%
65 | Cc1cccc(NC(=O)Cn2cc(C(=O)c3ccccc3)c3ccccc32)c1C | inactive: 71%
66 | Cc1ccc(NC(=O)N(Cc2ccc3c(c2)OCO3)C2CCN(Cc3ccccc3)CC2)cc1F | inactive: 76%
67 | CN(C)C(=O)Oc1cccc2cccnc12 | inactive: 91%
68 | COC(=O)CC1=C(C(=O)OC)C2(C(=O)Nc3ccc(F)cc32)C(C#N)=C(N)O1 (stereo not given) | inactive: 72%
69 | Cc1cc(C)cc(-n2c(/C=C/c3cccc(F)c3)nc3ccccc3c2=O)c1 | inactive: 68%
70 | COc1ccc(NC(=O)CN2C(=O)C(C)N=C(c3ccccc3F)c3cc(Cl)ccc32)c(OC)c1 (stereo not given) | inactive: 72%
71 | Cc1nnc(NC(=O)c2cccn(Cc3ccc(Cl)cc3)c2=O)s1 | inactive: 65%
72 | O=S1(=O)CC2(N3CCOCC3)CCCCC21 (stereo not given) | inactive: 112%
73 | CC(=O)N(C1=NCCCS1)c1ccccc1F | inactive: 107%
74 | COc1ccc(OC)c(NC(=O)Cn2cc(C(=O)c3ccccc3F)c3ccccc32)c1 | inactive: 69%
75 | Cc1ccc(-n2c(/C=C/c3ccc(Br)s3)nc3ccccc3c2=O)cc1C | inactive: 138%

From PubChem BioAssay AID463173 (ICCB-Longwood Screening Facility, Harvard Medical School, 2010)
